In publication PMC5700166:
Only a part is listed here, and it is no random draw. The list includes weakly bound sequences.

biological target: T1, GST-Ap-NF-kB RHD (UniProt A0A913YAJ5); assay: protein-binding microarray (PBM); settings: PBM: ~300 nM protein, 6 mM HEPES pH 7.8, 80 mM KCl, 0.5 mM EDTA, 0.5 mM EGTA, 6% glycerol, 35 ng/ul poly-dIdC, 1% milk, 1 h, room temperature; high values mean tight binding; double strand, one strand shown
T1 sequence: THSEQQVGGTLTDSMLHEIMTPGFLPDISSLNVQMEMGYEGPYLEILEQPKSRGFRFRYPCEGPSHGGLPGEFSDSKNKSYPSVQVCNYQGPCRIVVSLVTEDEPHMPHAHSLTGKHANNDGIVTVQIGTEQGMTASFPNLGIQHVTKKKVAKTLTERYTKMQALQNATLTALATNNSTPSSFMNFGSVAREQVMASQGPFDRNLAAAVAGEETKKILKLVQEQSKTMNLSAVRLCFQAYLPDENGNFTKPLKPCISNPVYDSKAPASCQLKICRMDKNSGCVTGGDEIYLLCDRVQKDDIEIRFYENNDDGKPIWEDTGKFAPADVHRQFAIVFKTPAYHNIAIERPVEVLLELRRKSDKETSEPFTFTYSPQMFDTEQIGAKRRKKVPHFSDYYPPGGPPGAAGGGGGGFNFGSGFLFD

Sequence | binding signal [z-score]
CCGATTAACATCACGTGTTTTCCTGATGTTAATCGGGTCTTGATTCGCTTGACGCTGCTG | -0.14
CCGATTAACATCATAAAAAAAAATGATGTTAATCGGGTCTTGATTCGCTTGACGCTGCTG | -0.355
CCGATTAACATCAGGAAGGCCCCTGATGTTAATCGGGTCTTGATTCGCTTGACGCTGCTG | 2.9
CCGATTAACATCAAAAACTACCCTGATGTTAATCGGGTCTTGATTCGCTTGACGCTGCTG | 4.12
CCGATTAACATCAAAAATTCCATTGATGTTAATCGGGTCTTGATTCGCTTGACGCTGCTG | -0.572
CCGATTAACATCAAAGGATTTCCTGATGTTAATCGGGTCTTGATTCGCTTGACGCTGCTG | -0.269
CCGATTAACATCAACGGGAACTCTGATGTTAATCGGGTCTTGATTCGCTTGACGCTGCTG | 2.34
CCGATTAACATCACGAAAAATCCTGATGTTAATCGGGTCTTGATTCGCTTGACGCTGCTG | -0.319
CCGATTAACATCACCTCTCGCGCTGATGTTAATCGGGTCTTGATTCGCTTGACGCTGCTG | 0.241
CCGATTAACATCAAATATTTTCCTGATGTTAATCGGGTCTTGATTCGCTTGACGCTGCTG | 0.00302
CCGATTAACATCAGGGACGTCCCTGATGTTAATCGGGTCTTGATTCGCTTGACGCTGCTG | 7.37
CCGATTAACATCAGGAATTGCCATGATGTTAATCGGGTCTTGATTCGCTTGACGCTGCTG | -0.112
CCGATTAACATCAAAGGAAATTCTGATGTTAATCGGGTCTTGATTCGCTTGACGCTGCTG | -0.0472
CCGATTAACATCAAGGGAGTCCCTGATGTTAATCGGGTCTTGATTCGCTTGACGCTGCTG | 5.78
CCGATTAACATCAGGGGGGTAACTGATGTTAATCGGGTCTTGATTCGCTTGACGCTGCTG | 5.83
CCGATTAACATCAGGAAAAATACTGATGTTAATCGGGTCTTGATTCGCTTGACGCTGCTG | -0.224
CCGATTAACATCAAGTACAACGGTGATGTTAATCGGGTCTTGATTCGCTTGACGCTGCTG | -0.0766
CCGATTAACATCATGTGGTTCTCTGATGTTAATCGGGTCTTGATTCGCTTGACGCTGCTG | -0.288
CCGATTAACATCAGTGAACCACATGATGTTAATCGGGTCTTGATTCGCTTGACGCTGCTG | -0.736
CCGATTAACATCAGAAAATTACATGATGTTAATCGGGTCTTGATTCGCTTGACGCTGCTG | -0.78

Sequence | binding signal [z-score]
CCGATTAACATCACGGAAACCACTGATGTTAATCGGGTCTTGATTCGCTTGACGCTGCTG | -0.433
CCGATTAACATCACGTACATTCCTGATGTTAATCGGGTCTTGATTCGCTTGACGCTGCTG | 0.0173
CCGATTAACATCAGTATTTTCCATGATGTTAATCGGGTCTTGATTCGCTTGACGCTGCTG | -0.253
CCGATTAACATCAGGCAAGTCCCTGATGTTAATCGGGTCTTGATTCGCTTGACGCTGCTG | 3.63
CCGATTAACATCAAATTTCCCCATGATGTTAATCGGGTCTTGATTCGCTTGACGCTGCTG | 7.86
CCGATTAACATCAGGCGGTAAGGTGATGTTAATCGGGTCTTGATTCGCTTGACGCTGCTG | 0.427
CCGATTAACATCAGGGAGTACCCTGATGTTAATCGGGTCTTGATTCGCTTGACGCTGCTG | 5.7
CCGATTAACATCAGGAGTTTCCATGATGTTAATCGGGTCTTGATTCGCTTGACGCTGCTG | -0.0595
CCGATTAACATCAGTTTTTTCCATGATGTTAATCGGGTCTTGATTCGCTTGACGCTGCTG | -0.0799
CCGATTAACATCACGGAAAATACTGATGTTAATCGGGTCTTGATTCGCTTGACGCTGCTG | 0.0745
CCGATTAACATCAAAAAACCGTTTGATGTTAATCGGGTCTTGATTCGCTTGACGCTGCTG | -0.264
CCGATTAACATCAGGGAACTCCCTGATGTTAATCGGGTCTTGATTCGCTTGACGCTGCTG | 8.33
CCGATTAACATCACGTAAACTCCTGATGTTAATCGGGTCTTGATTCGCTTGACGCTGCTG | 0.0592
CCGATTAACATCACGGGAGTTCCTGATGTTAATCGGGTCTTGATTCGCTTGACGCTGCTG | 3.99
CCGATTAACATCAGGAAACTCCATGATGTTAATCGGGTCTTGATTCGCTTGACGCTGCTG | -0.174
CCGATTAACATCATGGTACTTGTTGATGTTAATCGGGTCTTGATTCGCTTGACGCTGCTG | 0.718
CCGATTAACATCAGTGGTTACCATGATGTTAATCGGGTCTTGATTCGCTTGACGCTGCTG | 0.0575
CCGATTAACATCACTGGAATTCCTGATGTTAATCGGGTCTTGATTCGCTTGACGCTGCTG | 0.14
CCGATTAACATCAGGAATTTCTATGATGTTAATCGGGTCTTGATTCGCTTGACGCTGCTG | 0.367

biological target: T2, GST-Nv-NF-kB (Cys allele) (UniProt E5G601); assay: protein-binding microarray (PBM); settings: PBM: ~300 nM protein, 6 mM HEPES pH 7.8, 80 mM KCl, 0.5 mM EDTA, 0.5 mM EGTA, 6% glycerol, 35 ng/ul poly-dIdC, 1% milk, 1 h, room temperature; Ap Aiptasia and Nv Nematostella (sea anemones) / Co Capsaspora / Aq Amphimedon (sponge) / Dm Drosophila / Hu human; RHD is the Rel homology domain; high values mean tight binding; most listed sequences are background and not binding sites; double strand, one strand shown
T2 sequence: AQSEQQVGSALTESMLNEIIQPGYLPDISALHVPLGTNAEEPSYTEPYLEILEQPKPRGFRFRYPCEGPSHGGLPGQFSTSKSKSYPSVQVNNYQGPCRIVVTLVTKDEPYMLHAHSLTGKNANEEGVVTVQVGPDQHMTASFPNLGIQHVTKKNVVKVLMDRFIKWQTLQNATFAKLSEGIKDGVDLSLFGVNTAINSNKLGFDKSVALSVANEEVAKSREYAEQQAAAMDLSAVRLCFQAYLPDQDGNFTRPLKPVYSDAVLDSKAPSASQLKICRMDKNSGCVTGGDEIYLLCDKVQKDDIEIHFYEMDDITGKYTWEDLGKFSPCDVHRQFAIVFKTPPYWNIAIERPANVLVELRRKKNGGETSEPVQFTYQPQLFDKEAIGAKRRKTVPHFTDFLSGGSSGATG

Sequence | binding signal [z-score]
CCGATTAACATCACGTGTTTTCCTGATGTTAATCGGGTCTTGATTCGCTTGACGCTGCTG | 0.172
CCGATTAACATCATAAAAAAAAATGATGTTAATCGGGTCTTGATTCGCTTGACGCTGCTG | 0.588
CCGATTAACATCAGGAAGGCCCCTGATGTTAATCGGGTCTTGATTCGCTTGACGCTGCTG | 2.69
CCGATTAACATCAAAAACTACCCTGATGTTAATCGGGTCTTGATTCGCTTGACGCTGCTG | 3.21
CCGATTAACATCAAAAATTCCATTGATGTTAATCGGGTCTTGATTCGCTTGACGCTGCTG | 0.429
CCGATTAACATCAAAGGATTTCCTGATGTTAATCGGGTCTTGATTCGCTTGACGCTGCTG | 0.115
CCGATTAACATCAACGGGAACTCTGATGTTAATCGGGTCTTGATTCGCTTGACGCTGCTG | 1.64
CCGATTAACATCACGAAAAATCCTGATGTTAATCGGGTCTTGATTCGCTTGACGCTGCTG | -0.537
CCGATTAACATCACCTCTCGCGCTGATGTTAATCGGGTCTTGATTCGCTTGACGCTGCTG | -0.207
CCGATTAACATCAAATATTTTCCTGATGTTAATCGGGTCTTGATTCGCTTGACGCTGCTG | -0.646
CCGATTAACATCAGGGACGTCCCTGATGTTAATCGGGTCTTGATTCGCTTGACGCTGCTG | 7.13
CCGATTAACATCAGGAATTGCCATGATGTTAATCGGGTCTTGATTCGCTTGACGCTGCTG | -0.0328
CCGATTAACATCAAAGGAAATTCTGATGTTAATCGGGTCTTGATTCGCTTGACGCTGCTG | 0.605
CCGATTAACATCAAGGGAGTCCCTGATGTTAATCGGGTCTTGATTCGCTTGACGCTGCTG | 4.59
CCGATTAACATCAGGGGGGTAACTGATGTTAATCGGGTCTTGATTCGCTTGACGCTGCTG | 4.16
CCGATTAACATCAGGAAAAATACTGATGTTAATCGGGTCTTGATTCGCTTGACGCTGCTG | 0.583
CCGATTAACATCAAGTACAACGGTGATGTTAATCGGGTCTTGATTCGCTTGACGCTGCTG | 0.331
CCGATTAACATCATGTGGTTCTCTGATGTTAATCGGGTCTTGATTCGCTTGACGCTGCTG | -0.27
CCGATTAACATCAGTGAACCACATGATGTTAATCGGGTCTTGATTCGCTTGACGCTGCTG | -0.391
CCGATTAACATCAGAAAATTACATGATGTTAATCGGGTCTTGATTCGCTTGACGCTGCTG | -0.155

Sequence | binding signal [z-score]
CCGATTAACATCACGGAAACCACTGATGTTAATCGGGTCTTGATTCGCTTGACGCTGCTG | -0.134
CCGATTAACATCACGTACATTCCTGATGTTAATCGGGTCTTGATTCGCTTGACGCTGCTG | -0.815
CCGATTAACATCAGTATTTTCCATGATGTTAATCGGGTCTTGATTCGCTTGACGCTGCTG | 0.253
CCGATTAACATCAGGCAAGTCCCTGATGTTAATCGGGTCTTGATTCGCTTGACGCTGCTG | 3.87
CCGATTAACATCAAATTTCCCCATGATGTTAATCGGGTCTTGATTCGCTTGACGCTGCTG | 9.05
CCGATTAACATCAGGCGGTAAGGTGATGTTAATCGGGTCTTGATTCGCTTGACGCTGCTG | 0.0229
CCGATTAACATCAGGGAGTACCCTGATGTTAATCGGGTCTTGATTCGCTTGACGCTGCTG | 4.14
CCGATTAACATCAGGAGTTTCCATGATGTTAATCGGGTCTTGATTCGCTTGACGCTGCTG | -0.226
CCGATTAACATCAGTTTTTTCCATGATGTTAATCGGGTCTTGATTCGCTTGACGCTGCTG | 0.894
CCGATTAACATCACGGAAAATACTGATGTTAATCGGGTCTTGATTCGCTTGACGCTGCTG | -0.0428
CCGATTAACATCAAAAAACCGTTTGATGTTAATCGGGTCTTGATTCGCTTGACGCTGCTG | 0.233
CCGATTAACATCAGGGAACTCCCTGATGTTAATCGGGTCTTGATTCGCTTGACGCTGCTG | 10.6
CCGATTAACATCACGTAAACTCCTGATGTTAATCGGGTCTTGATTCGCTTGACGCTGCTG | -0.711
CCGATTAACATCACGGGAGTTCCTGATGTTAATCGGGTCTTGATTCGCTTGACGCTGCTG | 3.71
CCGATTAACATCAGGAAACTCCATGATGTTAATCGGGTCTTGATTCGCTTGACGCTGCTG | -0.389
CCGATTAACATCATGGTACTTGTTGATGTTAATCGGGTCTTGATTCGCTTGACGCTGCTG | 0.141
CCGATTAACATCAGTGGTTACCATGATGTTAATCGGGTCTTGATTCGCTTGACGCTGCTG | -0.595
CCGATTAACATCACTGGAATTCCTGATGTTAATCGGGTCTTGATTCGCTTGACGCTGCTG | 0.747
CCGATTAACATCAGGAATTTCTATGATGTTAATCGGGTCTTGATTCGCTTGACGCTGCTG | 0.179
